Source: PubChem BioAssay AID1454 (National Center for Advancing Translational Sciences (NCATS), 2008)
The campaign covered roughly 130,000 compounds. About 550 (0.42%) were called active. Inconclusive means that the source gave no clear call. Such entries were picked first, then a sample of the others. Calls come from the whole dose curve; as a rule, active = well fitted inhibition curve with a large enough effect; inconclusive = small, poorly fitted or top-dose-only effect, or effect the other way; inactive = flat fitted curve, though single readings scatter. Potencies of inconclusive entries are left out as doubtful fits.

test: qHTS Assay for Inhibitors of the ERK Signaling Pathway using a Homogeneous Screening Assay; Stimulation with EGF; details: HEK293-V1b, EGF-stimulated phospho-ERK AlphaScreen; activity change, negative = inhibition: at the top concentration; note: nearly all actives have a fitted effect of over 55% in size;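 for activity change, negative = inhibition: plate controls were stimulated vehicle wells for no effect and unstimulated vehicle basal for full effect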
How it was run: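 Compounds are titrated over HEK293-V1b cells kept overnight in 1% FBS. After 30 min at 37C, EGF (25 nM final) triggers ERK phosphorylation for 5 min, measured by AlphaScreen in lysates.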
Potency is the fitted concentration of half-maximal effect; tags give direction and shape of the fitted curve.

Row | Structure (SMILES) | Potency | activity change, negative = inhibition
1 | CCOC(=O)C1(Cc2ccccc2C)CCCN(Cc2cn(C)nc2C)C1 (stereo not drawn) | inconclusive [inhibitor, partial curve, poor fit] | –
2 | CCn1c(C)cc(/C=C2/NC(=O)N(c3ccccc3)C2=O)c1C | inconclusive [inhibitor, single point] | –
3 | CCOc1ccc(Nc2cc(C)nc3nc(C)nn23)cc1 | inconclusive [inhibitor, partial curve] | –
4 | COCc1ccc([C@@H]2C[C@H]3CN(Cc4ccccc4C)C(=O)[C@]34CCCN24)o1 | inconclusive [inhibitor, single point] | –
5 | Cc1ccccc1OCC(=O)N1N=C(C(F)(F)F)CC1(O)C(C)(C)C (stereo not drawn) | inconclusive [inhibitor, single point] | –
6 | Cn1c(N)c(C(=O)COC(=O)[C@@H]2CCCN2S(=O)(=O)c2ccc(Cl)cc2)c(=O)n(C)c1=O | – | inactive: -9.01% [at 57.5 µM]
7 | COc1ccc(Nc2ncnc3sc(-c4ccccc4)cc23)cc1OC | inconclusive [inhibitor, single point] | –
8 | CCCCN(C)CCNC(=O)c1nn(-c2ccc(OC)cc2)c(=O)c2c1c1ccccc1n2C | inconclusive [inhibitor, single point] | –
9 | C/C(=N\NC(=O)COc1ccccc1-c1ccccc1)c1ccc(O)cc1O | inconclusive [inhibitor, single point] | –
10 | CCCCN1CCCC1CNC(=O)c1cc(C#N)c2ccccc2c1OC (stereo not drawn) | inconclusive [inhibitor, partial curve] | –
11 | O=C(NC(=S)Nc1ccc(CN2CCOCC2)cc1)c1ccc(-c2cccc(Cl)c2)o1 | inconclusive [inhibitor, single point] | –
12 | COc1ccc2[nH]c3c(NCCC4=CCCCC4)ncnc3c2c1 | active: 20 µM | –
13 | Cc1cccc(NC(=S)N2CCCCC2)c1 | – | inactive: 4.41%
14 | CCOC(=O)c1cnc2c(C)c(Cl)ccc2c1Nc1ccc(S(=O)(=O)Nc2ncccn2)cc1 | inconclusive [inhibitor, single point] | –
15 | O=C(NC(=S)Nc1ccc(Cc2ccncc2)cc1)c1ccc(F)cc1 | inconclusive [inhibitor, single point] | –
16 | COc1ccccc1CC(Cc1nc2ccccc2[nH]1)c1nc2ccccc2[nH]1 (stereo not drawn) | inconclusive [inhibitor, single point] | –
17 | COCc1ccc(CN2CCCC(CCC(=O)NCc3ccc(C)o3)C2)o1 (stereo not drawn) | inconclusive [inhibitor, single point] | –
18 | CC(=O)NC1(C(F)(F)F)C(=O)Nc2c1c(=O)[nH]c(=O)n2-c1ccccc1 (stereo not drawn) | inconclusive [inhibitor, single point] | –
